Measured values reported in the supplement of paper PMC11417369.
± gives the standard deviation of the averaged measurements. This is one part of the list.

test system: PfAP2-G AP2 domain (GST-tagged); experiment: gcPBM binding intensity (ln(normalized median fluorescence intensity)); higher = stronger DNA binding
In short: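 GST-fused DNA-binding domains of P. falciparum, expressed in E. coli, were applied at about 25 μg on average for 1 h to an Agilent 4 × 180k array of primer-extended double-stranded 36-bp intergenic genomic probes and negative controls. Binding intensity is the highest Masliner-normalised natural-log median intensity across replicate spots of either probe orientation, measured with Alexa488 anti-GST antibody and a 488 nm scan.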

Sequence	gcPBM binding intensity (ln)
AACAACTATTAATTTACACACATGTATATATCTTAC [CACACA_site7459]	10.06 ± 0.049
TATTAAAAGGTGAGTACACACATATATGCGTATATA [CACACA_site2102]	11.5 ± 0.81
CTAACAACCAAACGCACACACACAAAAAAAAAAATA [CACACA_site400]	10.3 ± 0.47
TTTGAAATGATATATAAACACACATATATATATATA [CACACA_site9170]	10.1 ± 0.42
TAAACAGAAGCACATACACACACTCAAAAAAAAAAA [CACACA_site3051]	10.2 ± 0.4
AAAATACATAAACACACACACACACCGATATATATA [CACACA_site9186]	9.97 ± 0.15
CACAAACACCCAAACACACACACACCGACATACATA [CACACA_site4410]	10.2 ± 0.27
TTTTAAGGTGTGAAGGTGCAAAAAGGTAAATAGGAA	10.5 ± 0.35
TCGTGTGTAATATTATATATATATATATAATATATA [TGCATGCA_negctrl_site289]	10.1 ± 0.23
AAAAAAAAAAAAGGCACACAAACATATGTAGACATA [CACACA_site2284]	10.1 ± 0.042
TCTTTTATATTGTAGAGTACATATTTTCAATATATA [XGTACX_site5586]	11.3 ± 0.82
TTCTTTTATAAAAGTAGTACAATTATATTGTAATTA [XGTACX_site2855]	11.5 ± 0.94
ATCATAAATTATTATACACACAATACGTGACCTATT [CACACA_site1906]	10.5 ± 0.35
AAATTGTCAAAACACGCACACACATATACATAATAA [CACACA_site1743]	10.5 ± 0.45
GTGATACGCTATAGGACACACGCTTAATAATTATAA [CACACA_site1694]	10.7 ± 0.57
AAATTAACAAACTGTAGTACTAACAATATATACAAA [XGTACX_site1772]	11.2 ± 0.76
GGATATTATATAAAGTGTACAAGACAAATATATACA [XGTACX_site8173]	11.1 ± 0.69
ATATATCAAGGGAGTGAATGTTATGCATATGAATAT [TGCATGCA_negctrl_site573]	9.845 ± 0.021
AATAAATTAAATAAAAATGTTTAACATAAAATATGA [GTGCAC_negctrl_site373]	9.725 ± 0.078
AAAAAAAAAAAACACACACACAAAATAAACAAACAA [CACACA_site2721]	10.06 ± 0.071
ATTATAATTATCAAGGTGCGTGTATTATAATAAATA [GTGCAC_site9917]	10.2 ± 0.19
TAATATAATAATAATTGTACTTTTCATAGTGTAATT [XGTACX_site8152]	11.2 ± 0.74
ATATATTTTTTTTTTATTTTATTATTATAATTTATC [XGTACX_negctrl_site16]	9.56 ± 0.042

Sequence	gcPBM binding intensity (ln)
TAATATTATTTTTCAGTGCAATATAACCTTAGAATT [GTGCAC_site9417]	9.96 ± 0.18
TTATAATCAATGAATACACACATATATTTAATTAAT [CACACA_site3613]	10 ± 0.25
AATTTTCCATAGATTGTGCACAAATTTTTATTTTGT	10.46 ± 0.064
AAGAAAAAGACTTCATGAAAAAGAATTTTTTTAATT [TGCATGCA_negctrl_site473]	9.61 ± 0.42
TATTCAAAAATATAAACAATGAAACAGTATAATATG [CACACA_negctrl_site1482]	9.97 ± 0.071
TATAGTTCTTCTATTTGTACATATATTATTATTTAA [XGTACX_site895]	10.9 ± 0.3
ATTTTATTTTTTTGAAGTACGAATTCCGAGAAGAAA [XGTACX_site43]	11 ± 0.71
AAACAAAACAACTAAGTGCATAAAAATAAAATAAAT	10 ± 0.11
TATGTGTGAAAAAAATGTACATATATATAAATTATA [XGTACX_site7202]	11.2 ± 0.67
ATATATATATATAATAGTACATATATTTTGAAAGAT [XGTACX_site5800]	10.9 ± 0.58
AACTGTAAAAAATATAAACACACATAGAAATATATA [CACACA_site8002]	10.1 ± 0.26
GATATATTTTATATATGTACATACAATGGTAAATAT [XGTACX_site2759]	11.2 ± 0.73
TTTTTTTTCTTTTTTTGTACATAATAATATATAAAT [XGTACX_site6778]	10.9 ± 0.67
AATTAAAAAAGTAATTAACACACAATAATGTAATGC [CACACA_site9388]	10.02 ± 0.049
GTTCTGTAAATACGTGCACACACAAATCACAAATGT [CACACA_site7999]	10.8 ± 0.52
AAAGAAATGAAATATACACACATACATATATACATA [CACACA_site9335]	9.74 ± 0.16
TAGTTTCAAGTAGGACGTACATATAAAAGGATTTTT [XGTACX_site7136]	11.4 ± 0.81
TATATATATATAATTGTGCACATAATTTTAAACCAA	10.6 ± 0.38
TATTCTTACAAAAGTAGTACAATCATTCATATTTTT [XGTACX_site631]	11.5 ± 0.93
AAAAATGAAAAATGAAAAATGAAAAATGAAAAATAA [CACACA_negctrl_site695]	9.645 ± 0.021
TATCTCATAGTATACACACACACACGCGCACATATA [CACACA_site6917]	10.6 ± 0.23
TGTATATATTATATTTGTACATATAAAACTATATGT [XGTACX_site4782]	10.8 ± 0.46
TCACATACATTACTTACACACCATATTGATATATAC [CACACA_site6353]	10.13 ± 0.035

Sequence	gcPBM binding intensity (ln)
TTAAATATATGTAATACGCACACTTAATATTTTGAG [CACACA_site4170]	10.4 ± 0.28
AAAAAAAAAAAAAAAACATGCAATAAAGTGTGCGTA [TGCATGCA_site982]	10.16 ± 0.057
TTTTGGTGGGTTACAAGTACTCAAAATGGATTGTTA [XGTACX_site1951]	11.4 ± 0.83
TTTCGAAAAACAACAAGAAAAAAAAAAAAAAAAAAA [XGTACX_negctrl_site449]	9.8 ± 0.26
AAACAAAAAAATTGAAATAAAATGAAGTAAATGAAC [TGCATGCA_negctrl_site129]	10.1 ± 0.049
ACATGTCTTAAAAGACGTACATATAAAAGAACCCTA [XGTACX_site8940]	11.5 ± 0.88
ATTAAATCCGCACGCACACACACATATTAATAAAAA [CACACA_site3992]	10.6 ± 0.41
TAAAAAAGAAAATATATACACACCAAAAAAAAAAAA [CACACA_site3146]	9.81 ± 0.24
ATTCCTTGGTTGTATAGTACTTTGGTTAAACATAAA [XGTACX_site6967]	11 ± 0.67
CAATATTTGTTATGGGTGCAAACCGCATATATATAA [GTGCAC_site9543]	10.4 ± 0.18
TTATTTTTTAAAAGTAGTACAAATTTTTATAGAAAA [XGTACX_site7407]	11.5 ± 0.95
TATTATTTGAGTAGTTGTACTCATTAATATATAAAA [XGTACX_site3468]	11.4 ± 1.1
AATGTGCACACGCGTACACACAAAAAAAGAAAAAAA [CACACA_site7031]	11.7 ± 1.1
TATTAATTTCACCTTTCACATATGGAAAAAAAAAAA [CACACA_negctrl_site1243]	10.1 ± 0.37
CAAAATATTTATATCACACATATAAATAAAAATAAA [CACACA_site6028]	9.9 ± 0.18
ATGTTTATTTATTTATGTACTTATATATTTATATAT [XGTACX_site7924]	11.3 ± 0.91
AATAAAAATAAAAATTGTACACTTTTTTAATATTTA [XGTACX_site892]	11.3 ± 0.72
TTTCCAAATACAACTACACACAAACAAAAATTATAT [CACACA_site4641]	10.2 ± 0.23
ATTAACATTTTCGTATGTACATATATAATATATGTT [XGTACX_site7184]	11.1 ± 0.64
TATATATATATGTGCACACATAATAAAAAAAAAAAT [CACACA_site3831]	10.6 ± 0.69
TATAAAGCATATTAAAGTACTTATTTTCCTTTTTCT [XGTACX_site8892]	11.1 ± 0.57
TTTTATTTTATTCTTAAATAAGTATTATAAAATATG [XGTACX_negctrl_site201]	10.2 ± 0.39
TTATTTGAACAATATGCACACATTTTATTTATTTTA [CACACA_site3420]	10.035 ± 0.007

Sequence	gcPBM binding intensity (ln)
TTAATGTTGTATGGTTGTACAATAAGCCCCTTTTAA [XGTACX_site2484]	11.1 ± 0.47
GTAAAATAAAATATATGTACATATGTATATGAGGTA [XGTACX_site3743]	11.4 ± 1
GACATATTCCCCCCCACACACACACCCACATACATA [CACACA_site2302]	11.8 ± 0.71
TTTTGATCATCCAAAATATCTTCATCTGAACTACTA [CACACA_negctrl_site939]	9.84 ± 0.042
TATGATGATATAAAAACACACACATATAATATAATA [CACACA_site8321]	10.04 ± 0.035
TTAAAGCTTACATATACACACATACATAAATTCATA [CACACA_site8785]	10 ± 0.11
CTACATATTAATATATGTACATATTAATATATCTAA [XGTACX_site7118]	11.3 ± 0.66
ATATATACATATAAATGTACATAATTATTATGCACA [XGTACX_site1261]	10.8 ± 0.58
ATAAAAAGAAAAAAGGGTACACTATACTATTTAAAA [XGTACX_site4467]	11.4 ± 0.95
TGTTGATAAAAAATAAAAAATAAAAAAATAAAATAT [TGCATGCA_negctrl_site559]	9.65 ± 0.071
TACCCTGATCGGCATGCATGTAAGTAACAAATATAT [TGCATGCA_site153]	10.2 ± 0.25
ATTTAGAAATATATTTGTACATATATATATATATAT [XGTACX_site7129]	10.7 ± 0.46
ATTCAAACAAATTAATGTACATATATATAAGATATT [XGTACX_site1531]	11.1 ± 0.46
AATATAATATAATGCACACATAAAAAAAAAATCAAA [CACACA_site122]	10.1 ± 0.29
AAAACAAAATTATGAACATGCAAGGTAAAATTGTAA [TGCATGCA_site775]	10.165 ± 0.007
ATGTAGTTTTATCAGTGTACAAGTATTTTATCACAT [XGTACX_site8958]	11.4 ± 0.73
GTACAAATGTTGTGTATATATACACACATACATATA [XGTACX_negctrl_site276]	10.9 ± 0.46
AACTTACTTGGACATACACACATATAGATTTATATA [CACACA_site7412]	10.7 ± 0.4
CATATGCATACTATACGTACATATGTATATAATATA [XGTACX_site7738]	11.4 ± 0.87
ATATATATATTTTTTAAACACACACCGAAATATTTG [CACACA_site8937]	10.2 ± 0.14
